Measured values published in PubChem BioAssay AID256 (DTP/NCI, 2004).
This continues a long series; more values of the same kind are listed elsewhere. Inconclusive results and toxic doses are left out.

Tested on: CD2F1 mice, L1210 leukemia ip, survival T/C
Assay: NCI In Vivo Anticancer Drug Screen. Data for tumor model L1210 Leukemia (intraperitoneal) in CD2F1 (CDF1) mice
Details: higher = longer survival
Method: The antitumor activity of compounds was measured in mice bearing transplantable tumors. Survival or tumor size were measured and the results are expressed as the measurement made in the treated group (T) divided by the measurement made in the vehicle treated control group (C). The tumor model used in this assay is L1210 Leukemia (intraperitoneal) in CD2F1 (CDF1) mice

COc1cc(NS(C)(=O)=O)ccc1Nc1c2ccccc2nc2ccccc12
T/C (endpoint: mean survival time, dose: 0.11 mg/kg/injection, schedule: Q01DX009 (ip), vehicle: saline with Tween-80): 100 % of control
T/C (endpoint: mean survival time, dose: 0.16 mg/kg/injection, schedule: Q01DX009 (ip), vehicle: saline with Tween-80): 105 % of control
T/C (endpoint: mean survival time, dose: 1.0 mg/kg/injection, schedule: Q01DX009 (sc), vehicle: saline): 108 % of control
T/C (endpoint: mean survival time, dose: 1.0 mg/kg/injection, schedule: Q03HX016 (ip), vehicle: saline): 152 % of control
T/C (endpoint: mean survival time, dose: 2.0 mg/kg/injection, schedule: Q01DX009 (sc), vehicle: saline): 113 % of control
T/C (endpoint: mean survival time, dose: 2.0 mg/kg/injection, schedule: Q03HX008 (ip), vehicle: saline): 155 % of control
T/C (endpoint: mean survival time, dose: 2.0 mg/kg/injection, schedule: Q03HX016 (ip), vehicle: saline): 212 % of control
T/C (endpoint: mean survival time, dose: 4.0 mg/kg/injection, schedule: Q01DX009 (ip), vehicle: saline): 152 % of control
T/C (endpoint: mean survival time, dose: 4.0 mg/kg/injection, schedule: Q01DX009 (oral), vehicle: saline): 105 % of control
T/C (endpoint: mean survival time, dose: 4.0 mg/kg/injection, schedule: Q03HX008 (ip), vehicle: saline): 210 % of control
T/C (endpoint: mean survival time, dose: 4.0 mg/kg/injection, schedule: Q03HX016 (ip), vehicle: saline): 249 % of control
T/C (endpoint: mean survival time, dose: 4.0 mg/kg/injection, schedule: Q03HX024 (ip), vehicle: saline): 86 % of control
T/C (endpoint: mean survival time, dose: 6.25 mg/kg/injection, schedule: Q01DX001 (ip), vehicle: Klucel (hydroxypropylcellulose) (HPC)): 120 % of control
T/C (endpoint: mean survival time, dose: 7.5 mg/kg/injection, schedule: Q01DX009 (ip), vehicle: Klucel (hydroxypropylcellulose) (HPC)): 118 % of control
T/C (endpoint: mean survival time, dose: 8.0 mg/kg/injection, schedule: Q01DX001 (sc), vehicle: saline): 104 % of control
T/C (endpoint: mean survival time, dose: 8.0 mg/kg/injection, schedule: Q01DX009 (oral), vehicle: saline): 112 % of control
T/C (endpoint: mean survival time, dose: 8.0 mg/kg/injection, schedule: Q01DX009 (sc), vehicle: saline): 124 % of control
T/C (endpoint: mean survival time, dose: 15.0 mg/kg/injection, schedule: Q01DX001 (ip), vehicle: Klucel (hydroxypropylcellulose) (HPC)): 124 % of control
T/C (endpoint: mean survival time, dose: 15.0 mg/kg/injection, schedule: Q01DX009 (ip), vehicle: Klucel (hydroxypropylcellulose) (HPC)): 101 % of control
T/C (endpoint: mean survival time, dose: 16.0 mg/kg/injection, schedule: Q01DX001 (sc), vehicle: saline): 116 % of control
T/C (endpoint: mean survival time, dose: 16.0 mg/kg/injection, schedule: Q01DX009 (oral), vehicle: saline): 113 % of control
T/C (endpoint: mean survival time, dose: 16.0 mg/kg/injection, schedule: Q01DX009 (sc), vehicle: saline): 109 % of control
T/C (endpoint: mean survival time, dose: 16.0 mg/kg/injection, schedule: Q04DX003 (ip), vehicle: saline): 168 % of control
T/C (endpoint: mean survival time, dose: 16.0 mg/kg/injection, schedule: Q08DX002 (ip), vehicle: saline): 151 % of control
T/C (endpoint: mean survival time, dose: 32.0 mg/kg/injection, schedule: Q01DX001 (ip), vehicle: saline): 158 % of control
T/C (endpoint: mean survival time, dose: 32.0 mg/kg/injection, schedule: Q01DX001 (oral), vehicle: saline): 106 % of control
T/C (endpoint: mean survival time, dose: 32.0 mg/kg/injection, schedule: Q01DX001 (sc), vehicle: saline): 120 % of control
T/C (endpoint: mean survival time, dose: 32.0 mg/kg/injection, schedule: Q08DX002 (ip), vehicle: saline): 158 % of control
T/C (endpoint: mean survival time, dose: 60.0 mg/kg/injection, schedule: Q01DX001 (ip), vehicle: Klucel (hydroxypropylcellulose) (HPC)): 245 % of control
T/C (endpoint: mean survival time, dose: 60.0 mg/kg/injection, schedule: Q04DX003 (ip), vehicle: Klucel (hydroxypropylcellulose) (HPC)): 102 % of control
T/C (endpoint: mean survival time, dose: 64.0 mg/kg/injection, schedule: Q01DX001 (ip), vehicle: saline): 262 % of control
T/C (endpoint: mean survival time, dose: 64.0 mg/kg/injection, schedule: Q01DX001 (oral), vehicle: saline): 121 % of control
T/C (endpoint: mean survival time, dose: 64.0 mg/kg/injection, schedule: Q01DX001 (sc), vehicle: saline): 120 % of control
T/C (endpoint: mean survival time, dose: 64.0 mg/kg/injection, schedule: Q04DX003 (ip), vehicle: saline): 112 % of control
T/C (endpoint: mean survival time, dose: 100.0 mg/kg/injection, schedule: Q01DX009 (ip), vehicle: saline with Tween-80): 89 % of control
T/C (endpoint: mean survival time, dose: 120.0 mg/kg/injection, schedule: Q01DX001 (ip), vehicle: Klucel (hydroxypropylcellulose) (HPC)): 112 % of control
T/C (endpoint: mean survival time, dose: 128.0 mg/kg/injection, schedule: Q01DX001 (sc), vehicle: saline): 121 % of control
T/C (endpoint: median survival time, dose: 16.0 mg/kg/injection, schedule: Q01DX001 (ip), vehicle: other): 168 % of control
